Test results: PubChem BioAssay AID485344 (National Center for Advancing Translational Sciences (NCATS), 2010)
The campaign covered roughly 340,000 compounds. About 6,900 (2%) were called active. No stated cut-off is given here; in the data, active means inhibition above about 30%; inactive means below that, where a call was filed. Only a part is listed here, and it is no random draw. Entries without a call were filed so in the source. Where a structure was tested more than once in an assay, its records may differ in their call.
Further: 0% is about no effect.

These compounds were tested against D(2) dopamine receptor (Homo sapiens) (UniProt P14416) (assay: HTS Assay for Allosteric Antagonists of the Human D2 Dopamine Receptor: Primary Screen for Antagonists). Details: HEK293 TREx D2 cells, calcium flux, dopamine EC80; at 10 µM; stronger effect = higher value.
UniProt P14416, sequence (P14416 whole entry, looked up): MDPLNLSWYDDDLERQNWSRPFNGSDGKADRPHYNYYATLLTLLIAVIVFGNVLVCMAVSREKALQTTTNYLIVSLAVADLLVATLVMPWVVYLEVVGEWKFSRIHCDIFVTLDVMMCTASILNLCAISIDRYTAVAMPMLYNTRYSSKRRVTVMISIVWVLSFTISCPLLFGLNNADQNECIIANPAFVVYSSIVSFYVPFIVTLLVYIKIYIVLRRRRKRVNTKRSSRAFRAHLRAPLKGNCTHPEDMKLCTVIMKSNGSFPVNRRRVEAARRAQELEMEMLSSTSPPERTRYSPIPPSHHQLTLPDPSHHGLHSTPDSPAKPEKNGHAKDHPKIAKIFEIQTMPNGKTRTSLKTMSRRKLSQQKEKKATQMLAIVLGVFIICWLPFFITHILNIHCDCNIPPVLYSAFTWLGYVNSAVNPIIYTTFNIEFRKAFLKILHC
Summary of the method: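 Tetracycline-induced HEK293 T-REx cells expressing D2 force-coupled to calcium signalling were dye-loaded, exposed to compound for 180 s, then challenged with an EC80 of dopamine; calcium flux was followed kinetically for a further 180 s.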
O=S(=O)(Nc1cc(F)ccc1F)c1ccc2[nH]c3c(c2c1)CCCCC3 gave an inhibition of -9.62%. With Cc1ccc2oc(=O)c3cc(C(=O)N4CCN(c5ccccc5F)CC4)sc3c2c1 the inhibition was 0.133%. With CC(C)(C)c1ccc(Oc2ccc(NC(=O)CCC(=O)OCC(=O)c3ccccc3)cc2)cc1 the inhibition was 6.48%. For Cc1ccc(NC(=O)c2c(NC(=O)Cc3ccccc3)sc3c2CCCC3)cc1, the inhibition was -9.17%. CC(=O)c1cccc(NC(=O)Cn2c(=O)oc3cc(S(=O)(=O)N4CCCC4)ccc32)c1 was tested, and the inhibition was 7%. With CCOc1ccc(CCNC(=O)CN2C(=O)COc3ccc(S(=O)(=O)N4CCCCCC4)cc32)cc1 the inhibition was -10.7%. CC(=O)Nc1ccc(NC(=O)CCSCCc2ccccn2)cc1 was tested, and the inhibition was 4.57%. With CN(C)c1ccc(-c2nnc3n(Cc4ccccc4)c(=O)c4ccccc4n23)cc1 the inhibition was -3.42%. For CCC1(C)Cc2nc3sc(C(=O)O)c(N)c3cc2CO1 (stereo unspecified), the inhibition was active: 36.7%. With c1ccc(CN(CC2=NCCN2)c2ccccc2)cc1 the inhibition was active: 40.8%. COc1cccc(C(=O)N(Cc2ccco2)c2ccccn2)c1 gave an inhibition of 0.173%. With CCCN(CC1CC1)C(=O)COC(=O)c1oc2c(F)cccc2c1C the inhibition was active: 40.6%. For CC(=O)Nc1ccc(/C=N/N2C(=O)NC(C)(c3ccc(OC(F)F)cc3)C2=O)cc1 (stereo unspecified), the inhibition was active: 46.7%. O=C(CNC(=O)c1ccccc1F)OCc1cc(=O)n2nc(C3CCCCC3)sc2n1 gave an inhibition of 6.84%. Work on O=C(Nc1cc2ccc(O)cc2oc1=O)c1ccccc1 yielded an inhibition of 2.4%. Work on O=S(=O)(c1ccc(-c2csc(=Nc3ccc(OC(F)(F)Cl)cc3)n2CCCO)cc1)N1CCCC1 yielded an inhibition of -17.7%. CC(C)CCNC(=O)c1ccc2c(c1)N(Cc1ccccc1F)C(=O)c1ccccc1S2(=O)=O gave an inhibition of -2.82%. For Fc1cccc(Cl)c1CNCCSc1nnnn1-c1ccccc1, the inhibition was 3.15%. Cc1cccc(C)c1NC(=O)Cn1c(SCC(=O)NCc2ccccc2)nc2ccccc21 was tested, and the inhibition was -14.4%. Work on Cc1ccc(NC(=O)c2ncoc2-c2ccco2)cc1Cl yielded an inhibition of -3.1%. In the case of Cc1ccc(-c2nn(-c3ccccc3)cc2CNCc2ccccc2)cc1, the inhibition is reported as active: 51%. With CCOC(=O)N1CCN(c2c(NCCc3ccc(OC)c(OC)c3)c(=O)c2=O)CC1 the inhibition was active: 36.2%. Compound COc1ccc2cc(CNc3ccc(OC)c(OC)c3)c(=O)n(CC(=O)Nc3ccccc3F)c2c1 has an inhibition of 0.428%. In the case of CCOC(=O)N1CCN(C(=O)CN2C(=O)COc3ccc(C)cc32)CC1, the inhibition is reported as active: 37.5%. In the case of CCOC(=O)c1[nH]c(C)c(CCC(=O)Nc2cccc(SC)c2)c1C, the inhibition is reported as -10.9%. CCOC(=O)CNC(=O)c1cc(OC)cc(OC)c1 was tested, and the inhibition was active: 38.6%. Compound CCOc1ccc(NC(=O)C2CCN(S(=O)(=O)c3c(C)noc3/C=C/c3cccs3)CC2)cc1 has an inhibition of 17.7%. Compound CCOc1ccc(-c2nnc(SCC(=O)c3ccccc3)n2-c2ccccc2)cc1 has an inhibition of 8.44%. For COC(=O)CNC(=O)N1CCN(S(=O)(=O)c2ccc3c(ccn3C)c2)CC1, the inhibition was 19%. Compound COc1ccc(C(=O)Nc2ccc3oc(-c4ccc5ccccc5c4)nc3c2)cc1Br has an inhibition of 5.8%. In the case of Cn1cccc1-c1cc2n(n1)CCC(=O)N2CCCC(=O)NCc1ccc(F)cc1, the inhibition is reported as -1.93%. For CCc1cc2c(cc3c(=O)n(CC(=O)NCc4cc(Br)ccc4OC)ncn32)s1, the inhibition was 3.9%. With CCN(CC)S(=O)(=O)c1ccc2oc(C(=O)Nc3cc(C)ccc3OC)c(C)c2c1 the inhibition was 12.6%. For COC(=O)CC1=NN(c2ccccc2)C(=O)/C1=C\c1ccc(OC)cc1, the inhibition was active: 56%. In the case of CN1C(=O)Cc2cc(S(=O)(=O)CCC(=O)Nc3ccc(OC(F)(F)F)cc3)ccc21, the inhibition is reported as 9.76%. Oc1ccc(C(=S)N2CCCCCC2)cc1 was tested, and the inhibition was active: 37%. Cc1ccc(NC(=O)CN2C(=O)c3ccccc3Sc3ccc(C(=O)N4CCOCC4)cc32)c(Cl)c1 was tested, and the inhibition was 17.7%. CCN(C(=O)C1CCCN(c2ncnc3c2nc2n3CCCCC2)C1)c1cccc(C)c1 (stereo unspecified) gave an inhibition of -6.79%. In the case of CCOc1ccc(OC(=O)c2c(-c3ccccc3Cl)noc2C)cc1, the inhibition is reported as 3.67%. CCn1cc(C(=O)NCCc2ccc(C)cc2)c(=O)c2cc(S(=O)(=O)N3CCc4ccccc4C3)ccc21 gave an inhibition of -1.09%. Cc1ccc(-c2noc(-c3cc(-c4ccc(F)cc4)n[nH]3)n2)cc1 showed an inhibition of 4.46%. Compound O=C(Nc1c(-c2ccccc2)nc2ccccn12)c1ccccc1F has an inhibition of 6.31%. Work on Cc1cc(C)cc(NC(=O)CNS(=O)(=O)c2ccc3nc(C)sc3c2)c1 yielded an inhibition of -7.24%. COC(=O)c1ccc(NC(C)C(=O)OC)c([N+](=O)[O-])c1 (stereo unspecified) was tested, and the inhibition was active: 42.8%. Compound CC(=O)c1ccc(N2CCN(C(=O)CCn3cnc4onc(-c5ccc(F)cc5)c4c3=O)CC2)cc1 has an inhibition of -9.5%. O=C1CC(c2ccc(F)cc2)c2c(c3ccccc3[nH]c2=O)O1 (stereo unspecified) was tested, and the inhibition was -26.2%. For CCOc1ccccc1NC(=O)Nc1cc2c(cc1N1CCCCC1)n(CC)c(=O)n2CC, the inhibition was 3.24%. CCOC(=O)c1ccc(NC(=O)CSc2nccn2-c2cc(C)cc(C)c2)cc1 showed an inhibition of -0.372%. Compound CCOc1ccccc1CNCc1c(C(=O)O)n(Cc2ccc(F)cc2)c2cc(C)ccc12 has an inhibition of -11.3%. In the case of Cc1nc2nc(SCC(=O)NCCc3ccc(Cl)cc3)nn2c(C)c1Cc1ccccc1Cl, the inhibition is reported as 4.42%. Cc1ccccc1C1=CCN(c2ncc(NC(=O)c3ccc(Cl)cc3)cc2C(=O)O)CC1 gave an inhibition of -5.49%. Compound Cc1nc2c(-c3ccccc3)c(C)nn2c(C)c1CCC(=O)Nc1ccccc1F has an inhibition of -17.7%. Cc1ccc(NC(=O)CSc2nc3ccc(NC(=O)COc4ccc(C)cc4)cc3s2)cc1 was tested, and the inhibition was -9.44%. For COc1ccccc1N1CCN(CCCC(=O)c2ccc(F)cc2)CC1, the inhibition was active: 69.6%. Compound COc1ccccc1N1CCN(C(=O)CCn2nc(C)c(S(=O)(=O)N3CCCC3)c2C)CC1 has an inhibition of -6.42%. Compound Cc1ccc(SCc2nc(-c3ccc(C(=O)Nc4cc(C)ccc4C)cc3)oc2C)cc1 has an inhibition of 4.81%. O=C(Nc1nnc(C2CC(=O)N(c3ccc(Cl)cc3)C2)s1)c1ccco1 (stereo unspecified) showed an inhibition of 13.8%. Compound O=C(Nc1ccc2[nH]c(=O)c(=O)[nH]c2c1)c1cccc(F)c1 has an inhibition of -12%. COC(=O)c1sc2cccc(F)c2c1S(=O)(=O)Nc1ccc(C)cc1Cl showed an inhibition of 4.34%. Compound Cc1c(/C=C(\C#N)C(=O)Nc2cccc(Cl)c2)c2ccccc2n1Cc1ccccc1 has an inhibition of 4.05%. Compound Cc1ccc(NS(=O)(=O)c2ccc3c(c2)[C@H]2C=CC[C@H]2[C@@H](c2ccc(F)cc2)N3)cc1C has an inhibition of -13.1%. For CCOC(=O)C1CCN(S(=O)(=O)CCNC(=O)c2ccc(F)cc2)CC1, the inhibition was active: 30.3%. Compound Cn1c(=O)c2c(SCC(=O)NCc3ccc(F)cc3)nc(-c3ccccc3Cl)nc2n(C)c1=O has an inhibition of 7.2%. In the case of O=S(=O)(c1ccsc1)N1CC=C(c2ccccc2)CC1, the inhibition is reported as active: 34.7%. In the case of CCOc1ccc(NC(=O)c2sc3ccccc3c2Cl)cc1, the inhibition is reported as 17.1%. COc1ccc(-c2noc(-c3ccc(C)cc3Cl)n2)cc1OC showed an inhibition of -18.1%. Compound COc1ccc(C2CC(=O)Nc3c2c(=O)n(C)c2nc4ccccc4n32)cc1 (stereo unspecified) has an inhibition of 4.33%. CS(=O)(=O)n1nc(-c2ccco2)nc1NCc1ccccc1Cl showed an inhibition of 2.3%. With COc1ccc(C(=O)c2cn(Cc3cccc(C)c3)c3cc4c(cc3c2=O)OCO4)cc1 the inhibition was 7.47%. In the case of COc1cc(Cl)c(C)cc1NC(=O)CSc1cc(-c2ccccc2)nc(C)n1, the inhibition is reported as 9.81%. COc1ccc(CC(=O)NCCc2csc(-c3ccc(C(F)(F)F)cc3)n2)cc1 gave an inhibition of 4.27%. Work on CCc1ccccc1NC(=O)Cn1c(=O)n(CC(=O)NCCc2ccccc2)c(=O)c2ccccc21 yielded an inhibition of -9.07%. In the case of CCOC(=O)c1[nH]c(C)c(C(=O)NCc2cccc(OC)c2)c1C, the inhibition is reported as 25.8%. Compound CCCCNC(=O)CCCn1c(=O)c2ccccc2n(Cc2c(C)cc(C)cc2C)c1=O has an inhibition of 9.93%. In the case of COC(=O)N1CCCc2cc(S(=O)(=O)N3CCN(c4ccccc4)CC3)ccc21, the inhibition is reported as -15.7%. CN(C)c1ccc(CNC(=O)c2cnc3sc(N4CCCCCC4)nn3c2=O)cc1 gave an inhibition of 8.18%. With CCOC(=O)c1cccc(NC(=O)CC2C(=O)N(c3ccc(C)cc3)C(=O)N2Cc2cccc(OC)c2)c1 (stereo unspecified) the inhibition was 13.7%. For COc1cc(Cl)c(C)cc1NC(=O)CSc1nc2c(c(=O)[nH]1)CCCC2, the inhibition was 4.86%. Cn1c(=O)c([N+](=O)[O-])c(NCCc2ccccc2)c2ccccc21 was tested, and the inhibition was active: 38%. CC(C)Cc1nnc(NS(=O)(=O)Cc2ccccc2)s1 was tested, and the inhibition was active: 32%. Compound Cc1cccc(Cc2c(C)nc3nc(SCc4ccccc4Cl)nn3c2C)c1 has an inhibition of 0.865%. Work on Cc1ccc(C)c(Cn2c(=O)n(CCC(=O)NCc3ccc4c(c3)OCO4)c(=O)c3sccc32)c1 yielded an inhibition of 12.1%. In the case of COc1ccccc1N1CCN(C2CCN(C(=O)COc3cccc(C)c3)CC2)CC1, the inhibition is reported as active: 69.4%. In the case of O=C(c1ccc2c(c1)OCCO2)C1CCN(S(=O)(=O)c2cccc(F)c2)CC1, the inhibition is reported as active: 61.3%. CCOc1ccc(OCC)c(NC(=O)CCc2nc3cccnc3n2Cc2cccs2)c1 gave an inhibition of 1.91%. Work on COc1ccc(-c2nc(C)c(CCNC(=O)c3c(F)cccc3F)s2)cc1 yielded an inhibition of 28%. With O=C(Nc1ccccc1O)c1cc(S(=O)(=O)N2CCCC2)ccc1Cl the inhibition was 11.6%. Cc1ccc(Cl)cc1NC(=O)NCc1cccn1Cc1ccc(F)cc1 was tested, and the inhibition was -4.89%. For COc1ccccc1C(=O)N/N=C/C(C)=C/c1ccccc1, the inhibition was active: 74.6%. For Cc1ccc2nc(-c3ccc(NC(=O)c4ccccc4S(C)(=O)=O)cc3)sc2c1, the inhibition was -2.33%. COc1ccc2c(c1)c1c(c(=O)n(-c3ccc(OC)c(OC)c3)c(=O)n1CC(=O)N1CCCC1)n2C showed an inhibition of -6.43%. Cc1ccc(NC(=O)N2CCN(c3nnc(C)c4c(C)n(-c5ccc(Cl)cc5)nc34)CC2)c(C)c1 was tested, and the inhibition was -10.6%. For Cc1ccc(CNC(=O)CSc2ncc(S(=O)(=O)c3ccc(C)c(Cl)c3)c(=O)[nH]2)cc1, the inhibition was -9.7%. CCCNC(=O)Cn1cc(S(=O)(=O)N2CCCC2)c(S(=O)(=O)N2CCCC2)c1 was tested, and the inhibition was active: 37.5%. In the case of COC(=O)c1ccccc1NC(=O)c1cc(C)nc2c1c(C)nn2-c1ccc(C)cc1, the inhibition is reported as 7.77%. With COc1cc(OC)c(NC(=O)n2ncc3cc(Cl)ccc32)cc1Cl the inhibition was -9.09%.
